Reference: patent US11207385B2, “Melanocortins and methods of use thereof” (Aequus Biopharma, Inc., priority 2015, dated 2021)
“Also recorded” adds a separate entry of the source. Not every detail of the peptide structures is certain; ends, links or a residue may be inferred.

What was measured:
[1] = system: murine models of gout (MSU-injected air pouch); assay: Murine air pouch model of gout, neutrophil counts and IL-1β in exudate (Example 6); type: in vivo, Balb/c mice
Method: An air pouch was formed by injecting 6 mL of sterile air using a syringe filter with a 0.22 micron air filter and 23-gauge needle subcutaneously into a shaved skin site on the back of male Balb/c mice (age 6-8 weeks) on Day 0. The wound result from the pouch was allowed to heal for 3 days without any intervention. The pouch was then re-inflated with 3 mL of sterile air on Day 3. Three days after re-inflation on Day 6, compositions described herein were administered via subcutaneous injection 1 hour prior to the administration of 30 mg monosodium urate crystals (MSU) directly into the air pouch to induce an inflammatory response. Four hours after injection of MSU, mice were anesthetized and exsanguinated. Exudate from the air pouch was collected by lavaging the air pouch of each animal with 3 ml of sterile PBS containing 10 U/ml heparin. Analyses performed on exudates include determining neutrophil counts and IL-1β cytokine concentrations. […] 10 • 3) NDP-α-MSH-linker-linker-ACTH1-24, SEQ ID NO. 23 • 4) ACTH1-24-linker-linker-NDP-α-MSH, SEQ ID NO. 26
SEQ ID NOS. […] SEQ ID NO. 23 and SEQ ID NO. […] 10 in reducing neutrophil counts and IL-1β cytokine concentrations in collected exudate, and the arrangement of SEQ ID NO. […] 23.

[2] = system: murine models of gout (MSU-injected air pouch); assay: Prophylactic and treatment administration in murine air pouch model of gout (Example 10); type: in vivo, Balb/c mice
infantile spasms = assay: Treatment of infantile spasms (Example 11); type: in vivo; details: intramuscular injection, human child younger than two years; paper example in present tense

CCCC[C@H](NC(=O)[C@H](CO)NC(=O)[C@H](Cc1ccc(O)cc1)NC(=O)[C@H](CO)NC(=O)[C@H](CO)NC(=O)CNC(=O)CNC(=O)CNC(=O)CNC(=O)[C@H](CO)NC(=O)CNC(=O)CNC(=O)CNC(=O)CNC(=O)[C@@H]1CCCN1C(=O)[C@H](Cc1ccc(O)cc1)NC(=O)[C@@H](NC(=O)[C@H](CCCCN)NC(=O)[C@@H](NC(=O)[C@@H]1CCCN1C(=O)[C@H](CCCNC(=N)N)NC(=O)[C@H](CCCNC(=N)N)NC(=O)[C@H](CCCCN)NC(=O)[C@H](CCCCN)NC(=O)CNC(=O)[C@@H](NC(=O)[C@@H]1CCCN1C(=O)[C@H](CCCCN)NC(=O)CNC(=O)[C@H](Cc1c[nH]c2ccccc12)NC(=O)[C@H](CCCNC(=N)N)NC(=O)[C@H](Cc1ccccc1)NC(=O)[C@H](Cc1c[nH]cn1)NC(=O)[C@H](CCC(=O)O)NC(=O)[C@H](CCSC)NC(=O)[C@H](CO)NC(=O)[C@H](Cc1ccc(O)cc1)NC(=O)[C@@H](N)CO)C(C)C)C(C)C)C(C)C)C(=O)N[C@@H](CCC(=O)O)C(=O)N[C@@H](Cc1c[nH]cn1)C(=O)N[C@H](Cc1ccccc1)C(=O)N[C@@H](CCCNC(=N)N)C(=O)N[C@@H](Cc1c[nH]c2ccccc12)C(=O)NCC(=O)N[C@@H](CCCCN)C(=O)N1CCC[C@H]1C(=O)N[C@H](C(=O)O)C(C)C [SEQ ID NO. 26, ACTH1-24-linker-linker-NDP-α-MSH]
reducing neutrophil counts in collected exudate (comparison in words) ([1]; 3 and 10 nmol/mouse sc 1 h before MSU, FIG. 8): more active than SEQ ID NO. 10; also recorded: generally more active than that of SEQ ID NO. 23 | reducing IL-1β cytokine concentrations in collected exudate (comparison in words) ([1]; 3 and 10 nmol/mouse sc 1 h before MSU, FIG. 9): more active than SEQ ID NO. 10; also recorded: generally more active than that of SEQ ID NO. 23 | decreasing inflammation in the mouse air-pouch model of gout ([1]; 3 nanomole dose compared with 10 nanomole dose of SEQ ID NO. 10, FIGS. 9 and 10): equipotent to a 10 nanomole dose of SEQ ID NO. 10 | inflammation (total neutrophils, IL-1β in exudate) relative to vehicle control ([2]; 10 nmole/mouse sc 1 hour after MSU (treatment)): significantly decreased inflammation relative to vehicle control | inflammation (total neutrophils, IL-1β in exudate) relative to vehicle control ([2]; 10 nmole/mouse sc 1 hour prior to MSU (prophylactic)): significantly decreased inflammation relative to vehicle control | symptoms of infantile spasms after administration (infantile spasms): symptoms of the infantile spasms in the subject are improved
